# Source: the supplement of paper PMC3334620
# Over roughly 33,000 sequences, “E-score (-0.5 to 0.5)” has its median near -0.054; the highest 2% begin near 0.39. Some of the results follow.
# Molecular target: Ylr278c (UniProt Q05854)
# Assay: PBM E-score (8-mer binding enrichment) (E-score (-0.5 to 0.5)); higher = stronger / more preferred TF binding; most listed sequences are background and not binding sites
# Settings: protein concentration: 200 nM; construct: GST-DNA-binding domain
# Method in brief: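 For each ungapped eight-base word taken together with its reverse complement, the Universal PBM Analysis Suite assigned an E-score. Binding data came from GST-tagged yeast transcription factors, applied at about 100-200 nM, on universal all-10-mer Agilent arrays made double-stranded by primer extension. Fluorescent anti-GST marked bound protein, and scans were normalised with masliner.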
row,Sequence,PBM E-score
1,GTGGTATA,-0.188
2,AACATAAT,0.0435
3,CCTTATCC,0.00991
4,CCCCCTGA,-0.306
5,ACGAGCAA,-0.139
6,CGCCGAAG,0.365
7,ACCACTGG,-0.112
8,GCCCAGGC,-0.231
9,ACTGCAAT,-0.0461
10,ACTCGCGA,0.0423
11,GACGCGCC,0.0222
12,AGCAGCAG,-0.153
13,CGACCACA,-0.0971
14,ACAATTCC,0.185
15,ACAACGAA,0.0769
16,AGCTGGAG,-0.255
17,ATGCGCCC,0.0972
18,ATCGTTTA,-0.21
19,CGTTGGGA,-0.111
20,TGAATAAA,-0.101
21,GACAGTAA,0.0296
22,ATGAAGGG,-0.189
23,CTACGGAG,0.398
24,GCCAGACC,-0.0137
25,AGGGCTTG,-0.285

row,Sequence,PBM E-score
1,CAAGCTAC,-0.146
2,CGGGATAG,0.211
3,CACCAATC,0.00689
4,ACGAGTCT,-0.252
5,CTGGCAGA,-0.137
6,CTACGTCA,-0.22
7,CACGTTAG,-0.316
8,GTCAACTA,-0.084
9,ACAGCGGT,0.105
10,GGCGTTAA,0.123
11,ATCACGGA,0.365
12,CCGTGTCG,0.256
13,ACAGAGCC,-0.14
14,ACTCGATA,-0.109
15,CATCGAAA,-0.126
16,AATGTCGG,0.249
17,CCCCTATA,-0.0889
18,AATACGCG,0.00014
19,TATCATCA,-0.0335
20,ATATTGGG,-0.00985
21,CCAAAGCG,0.13
22,CATGTCAA,-0.335
23,AGTTAACT,0.0572
24,GAATCAGC,-0.14
25,AATGACCC,-0.1

row,Sequence,PBM E-score
1,AGAGCGCG,0.104
2,ATCTCAAC,-0.00641
3,ACAGGGTG,-0.265
4,CCCTATTA,-0.126
5,CAGGCCAA,-0.16
6,AAGTCCCT,-0.213
7,TCCCCTCA,-0.034
8,GGAGAAGA,0.192
9,CTTTGCTA,-0.178
10,GCGTTTAC,0.0879
11,CGCCGTAA,0.28
12,AAACTCGA,-0.0721
13,CTGCTCGA,-0.203
14,ACCATATG,-0.271
15,TAGCCCCA,0.00983
16,CAGAAGAC,-0.205
17,CGCGTGCC,0.0926
18,AGGTCCAG,-0.113
19,CCCCCTCC,-0.0916
20,GTGAGGCA,-0.0777
21,CTAAGGAA,-0.113
22,ACACATGG,-0.187
23,ATGTGCCC,-0.0158
24,CCTGAGTC,-0.102
25,GAGAACGC,0.0273

row,Sequence,PBM E-score
1,GCTTAAAC,-0.156
2,CCGCATAG,0.247
3,CTCGCCAA,0.00031
4,ACCATGTA,-0.101
5,ATTTGGTG,-0.127
6,ATTCCGTA,0.33
7,ATCACCGG,0.325
8,CATTACTC,-0.0235
9,AGGAGCAG,-0.00465
10,GTAATGAA,-0.153
11,AAACCATT,-0.217
12,GCTCACGA,-0.286
13,GATTGTCC,0.223
14,CCGCCGGA,0.462
15,AACCAAGC,-0.08
16,ATGCGTGA,-0.111
17,ATGCTGTC,-0.157
18,ACAGTTAC,-0.0401
19,AACCACGC,-0.137
20,CTATGGTA,-0.0832
21,ACAATATC,-0.0104
22,CGGTCGGA,0.385
23,CGCGTACA,-0.0824
24,AGTGCGTC,-0.101
25,GACCATAA,-0.23

row,Sequence,PBM E-score
1,TAAAGGAA,-0.152
2,CGTAGACC,-0.13
3,AGCGTTCG,-0.199
4,ATAGGGCG,0.0869
5,ATAAGCCA,-0.297
6,ACAGGTGG,-0.17
7,CGCCCACA,0.0294
8,AAGGTAGC,-0.275
9,CCTGCACG,-0.232
10,ATGCTACA,-0.284
11,CTATTGAC,-0.116
12,CGTAAGAA,0.0411
13,AGAGCTGC,-0.0659
14,AGTATAGC,-0.122
15,GATAATCC,0.315
16,GCCCCGCC,0.292
17,CCTTCATA,-0.029
18,ACTAACGA,-0.183
19,CGTCGTGA,-0.0274
20,AGGGGACT,-0.134
21,GTGCGCAA,0.0414
22,ACCTTTGG,-0.219
23,GAGTTAGC,0.0106
24,TCCCTCGA,-0.0806
25,CGAACGCG,0.117

row,Sequence,PBM E-score
1,GCAACTAA,0.0955
2,CGTTTCGC,0.0401
3,CAAGAAGC,-0.0334
4,AGGCCTCA,-0.18
5,AGTAAACA,0.0332
6,GTCGTCTA,-0.0115
7,CCCCGGAC,0.388
8,CACCCGGA,0.365
9,CTTACAGC,-0.265
10,CCACTCAG,-0.239
11,CAACGGAG,0.368
12,CTTACTAC,-0.064
13,ATCGCCCC,-0.0218
14,GGAGGGAC,0.0906
15,CAGGACTG,-0.287
16,ATTTTTGG,-0.0911
17,ACTAGTGC,-0.0271
18,ACACTAAC,0.0293
19,CACACCCA,-0.107
20,CGATAGAC,-0.0741
21,GTCTCCAA,-0.111
22,CCGACGTA,0.284
23,GTACTAAA,-0.061
24,CCTCCTAC,-0.0963
25,ACGCACCC,-0.0749

row,Sequence,PBM E-score
1,CTCTGTAC,-0.193
2,ATCAGAAT,-0.0859
3,CTACGTTC,-0.177
4,AGCCCGCC,0.228
5,GAACGCTC,-0.135
6,AGCAATCA,-0.118
7,ATATGACC,-0.0965
8,CTTCATGA,-0.0816
9,CAGCATGG,-0.0297
10,GAAATACC,0.228
11,GAAGCCCC,0.194
12,AGGCAGGG,-0.137
13,AGGAGAGG,-0.329
14,CAGCGAGC,-0.0547
15,ATAGGAAT,-0.133
16,ACGCGGAG,0.421
17,CGGTCCCC,0.216
18,GACCAGAC,-0.18
19,AGGAGATA,-0.016
20,GGGCCGTA,0.0879
21,CGTCTTAG,-0.145
22,ATAGCAGG,0.0173
